The values that follow come from the RNAGym collection of RNA variant scans (doi:10.7554/elife.90254).

The source gives no read counts; variants with many changes may rest on few reads.

The labels stand for the following.
B1: LINE1-mini (parent)
chain: GGCAGAGCUCAACACAGCGUGGCAAAGUGGCUGUGGCUAGACUGCC

The variants in the data set derive from B1. Description: self-cleavage, relative activity (ratio to wild type); higher = more cleavage; in vitro, sequencing; the parent is a self-cleaving ribozyme.
Consider A4U C8A A26U G36U, for which the self-cleavage amounted to 0.04.
The figure for A4U C18G U38G is 0.04.
For A4U C15G C23U A26U, the self-cleavage came out at 0.03.
With A4U C13U C37U, the self-cleavage is 0.08.
Take G5A A6U A16U C18U G44A: the self-cleavage was determined as 0.08.
The figure for G5A A12U A26C is 0.17.
Under A4U U28C A39U G44A stands 0.03.
Consider A4U C13G G17A, for which the self-cleavage came out at 0.01.
As for A4U C18A G40C, the self-cleavage came out at 0.02.
Under A4U U20C A39G C45G stands 0.06; under A4U C15G G19A U43C G44A, 0; under A4U C13G C37U, 0.04.
G5A A12C C31U U32G A41U: the self-cleavage is 0.01.
In the case of A4U C10U A11G U20G G35U C45G, the self-cleavage turned out to be 0.01.
In the case of A4U C13U A24C G29C, the self-cleavage was determined as 0.07.
As for A4U G7A A24C G36C, the self-cleavage was 0.06.
For A4U C15A G33U, the self-cleavage came to 0.08.
Regarding A4U G7A G21U G36A, the self-cleavage was 0.05.
Turning to G5A A11G G21A, the self-cleavage turned out to be 0.04.
As to A4U G30U G40A, the self-cleavage came to 0.04.
With G5A A12G C31G, the self-cleavage was determined as 0.04.
Turning to A4U C8G C10U, the self-cleavage came out at 0.08.
As for A4U G19A C37A, the self-cleavage came to 0.02.
Take A4U G5A A16C G17U U32A G35U: the self-cleavage is 0.18.
For the variant A4U G5A A12G A24C, the self-cleavage is 0.02.
On to A4U U38A A41G C45G, for which the self-cleavage turned out to be 0.02.
On to G5A A11C A14U C37A, for which the self-cleavage came out at 0.03.
Take G5A A12G G17A C18G G33C: the self-cleavage is 0.28.
Consider G5A A12C C31G G36C, for which the self-cleavage is 0.03.
Turning to A4U C13U G17A A24U, the self-cleavage came out at 0.06.
For A4U G7C A12G C13A C23G G30C G33U C42A, the self-cleavage amounted to 0.02.
For the variant A4U C10G C18A A24G A26C G35A, the self-cleavage turned out to be 0.02.
As to A4U G5C A6U, the self-cleavage worked out at 0.06.
As to G5A A6C G7U U43A, the self-cleavage is 0.45.
Consider A4U C10A U20A G29C, for which the self-cleavage came out at 0.02.
The figure for A4U C13A G30A A41C is 0.06; for A4U C10A C13U it is 0.1.
In the case of G5A A12C C42A, the self-cleavage came out at 0.01.
On to A4U C18G G21C C23U, for which the self-cleavage was found to be 0.12.
On to A4U G19A G29U, for which the self-cleavage is 0.05.
The figure for A4U C13A A14G G17A is 0.14; for A4U G7A A24U G30A G33C it is 0.14.
The figure for A4U G22U G27A is 0.08; for A4U G19A U38A it is 0.05; for A4U G5U U43G it is 0.
As for A4U U32C U43G, the self-cleavage is 0.17.
Under A4U C23A G27A C46A stands 0.28.
In the case of A4U U20A G29U, the self-cleavage was 0.09.
Consider A4U C13U G40U, for which the self-cleavage came out at 0.04.
Take G5A A6C G19C U38C: the self-cleavage was 0.03.
With A4U G27C U28A, the self-cleavage is 0.15.
Under A4U G27A G29C stands 0.17; under A4U C8G G21U G22U A41U, 0.34; under G5A A12C G30U, 0.02.
On to G5A A11C G29C, for which the self-cleavage was found to be 0.01.
As to A4U U20A G27U G29U, the self-cleavage was determined as 0.01.
The figure for A4U G5A C31G G44U is 0.03; for A4U C8A G21U it is 0.8; for G5A A6C A14U G21C A25U it is 0.12.
As for G5A A6U U28A C37A U38C, the self-cleavage came out at 0.01.
For the variant A4U G7C C13G U28A U32C, the self-cleavage came out at 0.07.
In the case of A4U G7A C13G A16G G33A, the self-cleavage amounted to 0.06.
The figure for G5A A11G C18A G21U A24G U28A is 0.02.
As to A4U U20C U28A, the self-cleavage is 0.19.
With A4U U20G U34G, the self-cleavage was found to be 0.04.
In the case of A4U C13U C15A C18U G40C, the self-cleavage came out at 0.04.
Under A4U C13A G17U G36U U38A stands 0.05; under G5A A11C A16G U20G G22A, 0.01.
In the case of G5A A12G U43A, the self-cleavage was 0.09.
Under A4U G7U C13A G17A stands 0.26; under A4U U9G G17C C46A, 0.1.
Under A4U G7U G36U stands 0.01; under A4U G21C C45U, 0.11.
As for A4U U9G G35U, the self-cleavage came to 0.09.
A4U U9G G35C: the self-cleavage came out at 0.03.
Consider A4U G21A G29A, for which the self-cleavage was 2.71.
As for A4U C8A A41U, the self-cleavage turned out to be 0.09.
Consider G5A A6C C18U G44C, for which the self-cleavage was determined as 0.05.
On to A4U U20G G29C, for which the self-cleavage came out at 0.05.
As to A4U G5U A25C, the self-cleavage turned out to be 0.04.
Turning to A4U U38A C45U, the self-cleavage was determined as 0.07.
Take A4U G30A G35U G44U: the self-cleavage is 0.02.
Regarding A4U C10G G29U G30C, the self-cleavage was determined as 0.01.
Consider A4U G7A G35U, for which the self-cleavage stood at 0.39.
Take G5A A6U A14U: the self-cleavage turned out to be 0.29.
Under A4U U20G G22C U38G stands 0.01.
The figure for A4U G5U U9A is 0.12; for A4U G7C C23A G33A it is 0.17; for A4U U9C G27C C42A it is 0.05.
As to A4U G22A G27C G36C, the self-cleavage is 0.1.
With G5A A11G C15A, the self-cleavage is 0.06.
A4U C18A A26U: the self-cleavage worked out at 0.11.
As to A4U C10U U32C, the self-cleavage came to 0.07.
Take G5A A6G C8A U20C: the self-cleavage worked out at 0.11.
Turning to A4U G17A G33C, the self-cleavage stood at 0.02.
Turning to A4U G21A C45U, the self-cleavage is 0.17.
In the case of A4U C15G C42U, the self-cleavage came to 0.02.
Regarding A4U G5A C13A G19U A24U G35A, the self-cleavage worked out at 0.02.
Turning to A4U G36C C37U, the self-cleavage turned out to be 0.07.
G5A A11G C31A G35U: the self-cleavage was 0.02.
Regarding A4U G7C A14G, the self-cleavage was 0.12.
As to A4U C31G G40U C42G, the self-cleavage came out at 0.02.
Turning to A4U C10G G27U, the self-cleavage was found to be 0.04.
Turning to A4U C23A G33C, the self-cleavage is 0.05.
With A4U G5U C13U C18U C42U, the self-cleavage is 0.03.
For the variant A4U G17C G22C, the self-cleavage came out at 0.05.
For the variant A4U G27A C37A, the self-cleavage was found to be 0.09.
In the case of G5A A6G C18A G27A G29A C42G, the self-cleavage was 0.19.
For the variant A4U G7A C8G G17A G40U, the self-cleavage came out at 0.09.
A4U G27U G30U C31U G33U: the self-cleavage is 0.07.
As to A4U G7A C13A A14C G17A, the self-cleavage turned out to be 0.09.
Under A4U G22C C23G G30A stands 0.12; under A4U C8G C23U, 0.24.
As for A4U G5C A12G G36U G44U, the self-cleavage was 0.04.
Turning to A4U G27U G35A G40C, the self-cleavage is 0.02.
For the variant A4U C18G U20G U28C G44C, the self-cleavage is 0.
Under A4U G21A G44A C46U stands 0.06.
Take A4U U28A G29U: the self-cleavage is 0.08.
Turning to A4U U38C C45G, the self-cleavage was found to be 0.01.
On to A4U G22A A39C, for which the self-cleavage was determined as 0.07.
In the case of A4U G17C U38C, the self-cleavage is 0.14.
As for A4U G5A U20C, the self-cleavage stood at 0.84.
On to A4U G21C A41C, for which the self-cleavage was 0.09.
For the variant A4U C15U C18A G19U C31U G44A C46U, the self-cleavage was 0.03.
As to G5A A11U G19C, the self-cleavage stood at 0.04.
In the case of A4U C31G A41U, the self-cleavage came out at 0.01.
A4U C31A G35U: the self-cleavage came to 0.05.
Under A4U G5C C15U stands 0.22; under A4U G5A A24U A25G G36U C46A, 0.04; under A4U G5U U20G U28A C37U, 0.01.
Turning to A4U G7C G40A C45U, the self-cleavage came out at 0.03.
Take A4U C10A U34G: the self-cleavage was 0.02.
Turning to G5A A6G C10G C45A, the self-cleavage was determined as 0.01.
Under A4U C8U A12U A41C stands 0.03.
Under A4U G19C C23U A26G G36C C37A stands 0.45.
A4U G19U G36U G44C: the self-cleavage came out at 0.04.
As to G5A A12G U20C G36U, the self-cleavage was 0.05.
Consider A4U G7C G17U G21C G35U A41G, for which the self-cleavage is 0.05.
Take A4U G21U G29U G33U U34C: the self-cleavage amounted to 0.09.
For A4U G5C C8A A11C A14C, the self-cleavage came out at 0.02.
In the case of A4U G7U A16U G27U C37A, the self-cleavage amounted to 0.18.
Under A4U G7A G33U G40U U43G C45A stands 0.07; under A4U C18A G27A G29U G33A, 0.13.
The figure for A4U C18A U32G G36A U38G is 0.01.
As for A4U C15A G17C G22U G36C, the self-cleavage is 0.04.
Consider A4U G5U U43C C45A, for which the self-cleavage was 0.04.
On to A4U G21U C42U, for which the self-cleavage came out at 0.03.
In the case of A4U C13G G35C, the self-cleavage was determined as 0.06.
Take A4U G17U G19C A25G U34G: the self-cleavage stood at 0.01.
Consider A4U C37A C42A, for which the self-cleavage came to 0.32.
On to A4U C13A C15U C18U G44U, for which the self-cleavage turned out to be 0.04.
As to G5A A12U G19A G27A, the self-cleavage amounted to 0.1.
Take A4U U9A A12G U38A: the self-cleavage is 0.03.
For G5A A11C A14C G21U C31U, the self-cleavage turned out to be 0.04.
For the variant A4U C15A U32G, the self-cleavage stood at 0.06.
As to A4U C13U C18U U20C C23U, the self-cleavage turned out to be 0.06.
In the case of A4U C37U U38C, the self-cleavage amounted to 0.01.
Take A4U G7U A11U A14U G21U G27U G29U: the self-cleavage was found to be 0.34.
For A4U C8A U9A G29U G36U, the self-cleavage stood at 0.32.
As to A4U C13U U28A G35A, the self-cleavage stood at 1.79.
A4U C10U A26U G36C A41U U43G C45A: the self-cleavage worked out at 0.03.
The figure for A4U G36A C42A is 0.05; for A4U G19A U34C it is 0.09; for A4U G7A A11C A39C C42U it is 0.03.
As to G5A A11G A24U G40A, the self-cleavage was found to be 0.02.
As for A4U U38G C45U, the self-cleavage was 0.21.
G5A A6C G36A C42G U43A: the self-cleavage was 0.06.
